Measured values reported in PubChem BioAssay AID504339 (National Center for Advancing Translational Sciences (NCATS), 2011).
Where “and” joins values, the source holds several entries; their conditions need not be identical. Equal values may be shown once. The campaign covered roughly 390,000 compounds. About 17,000 (4.4%) were called active. Inconclusive means that the source gave no clear call. Such entries were picked first, then a sample of the others. Calls follow the shape of the dose curve; as a rule, active = well fitted inhibition curve with a large enough effect; inconclusive = small, poorly fitted or top-dose-only effect; inactive = no such curve, though single readings can be large or run the other way. A potency beside an inconclusive call is a rough fit, not a confirmed value.

molecular target: Lysine-specific demethylase 4A (Homo sapiens) (UniProt O75164); experiment: qHTS Assay for Inhibitors of JMJD2A-Tudor Domain; details: AlphaScreen JMJD2A-Tudor / H3K4me3 peptide binding; activity change, negative = inhibition: at 114 µM (top of the series); also: nearly all actives have a fitted effect of over 50% in size
% is scaled to controls: 0 for no effect and ±100 for the full control effect; potency is read from the fitted curve at half-maximal effect; tags tell the direction and shape of the fitted curve.

Chain of UniProt O75164 (O75164 whole entry, looked up, the tested form may be a part): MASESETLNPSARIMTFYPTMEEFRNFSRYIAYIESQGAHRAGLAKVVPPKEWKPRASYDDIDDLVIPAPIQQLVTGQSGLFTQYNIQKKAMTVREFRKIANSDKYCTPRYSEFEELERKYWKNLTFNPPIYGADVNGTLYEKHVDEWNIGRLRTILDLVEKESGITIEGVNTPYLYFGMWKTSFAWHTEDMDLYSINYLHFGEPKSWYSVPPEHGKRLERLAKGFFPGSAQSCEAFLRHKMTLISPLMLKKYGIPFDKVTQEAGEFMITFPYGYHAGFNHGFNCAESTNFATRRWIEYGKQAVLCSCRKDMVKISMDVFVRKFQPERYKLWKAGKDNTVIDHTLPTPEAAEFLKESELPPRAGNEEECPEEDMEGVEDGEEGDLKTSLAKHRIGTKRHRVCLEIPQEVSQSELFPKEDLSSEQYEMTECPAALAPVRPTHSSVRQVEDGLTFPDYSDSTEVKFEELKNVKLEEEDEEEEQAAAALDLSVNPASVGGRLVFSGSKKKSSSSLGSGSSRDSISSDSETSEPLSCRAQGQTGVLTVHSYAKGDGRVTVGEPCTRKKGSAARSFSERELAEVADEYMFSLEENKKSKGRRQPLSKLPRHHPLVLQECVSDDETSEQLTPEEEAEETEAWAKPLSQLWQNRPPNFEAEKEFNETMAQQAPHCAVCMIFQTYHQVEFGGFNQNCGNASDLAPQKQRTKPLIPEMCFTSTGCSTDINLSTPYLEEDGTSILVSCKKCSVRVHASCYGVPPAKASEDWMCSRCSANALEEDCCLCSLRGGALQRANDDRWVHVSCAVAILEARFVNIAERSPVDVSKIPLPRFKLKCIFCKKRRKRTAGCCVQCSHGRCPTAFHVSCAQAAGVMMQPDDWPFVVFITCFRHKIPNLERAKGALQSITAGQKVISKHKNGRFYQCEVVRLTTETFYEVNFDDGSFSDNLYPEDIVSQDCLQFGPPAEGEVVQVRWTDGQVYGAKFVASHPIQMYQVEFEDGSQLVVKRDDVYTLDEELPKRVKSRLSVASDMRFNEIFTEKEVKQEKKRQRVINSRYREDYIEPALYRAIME

Structure (SMILES) | Potency | activity change, negative = inhibition
COc1ccc(-n2c(C)cc(C(=O)COC(=O)Cc3n[nH]c(=O)c4ccccc34)c2C)cc1 | inconclusive: 35.5 µM [inhibitor, full curve] | 
CC(C)(C)S(=O)(=O)c1cnc(-c2ccccn2)nc1N | inconclusive: 17.8 µM [inhibitor, full curve] | 
O=C(CN(Cc1ccc(Cl)cc1)S(=O)(=O)c1ccccc1)NCC1CCCO1 (centres undefined) |  | inactive: -7.64%
CN(CC(=O)Nc1ccc(F)cc1)C(=O)COC(=O)C1CCN(c2ccc(C(F)(F)F)cn2)CC1 |  | inactive: -41.4%
Cc1cccc(NC(=O)c2ccc3c(O)c(S(=O)(=O)c4ccccc4)c(=O)[nH]c3c2)c1C | inconclusive: 56.2 µM [inhibitor, partial curve] | 
O=C1C=C(Nc2ccc(O)cc2)CC(c2ccco2)C1 (centres undefined) |  | inactive: -33.3%
C=CCN1C(c2ccccc2)=CS/C1=C(\C#N)c1nnc2n1CCCCC2 | inconclusive: 89.1 µM [inhibitor, single point] | 
COc1cccc(NC(=S)N2CCN(c3ccccn3)CC2)c1 | active: 89.1 µM | 
Oc1ccc2ccc3cccc[n+]3c2c1 | inconclusive: 56.2 µM [inhibitor, partial curve] | 
CCn1c(SCC(=O)Nc2cc(OC)ccc2OC)nc2c(c1=O)SCC2 | inconclusive: 31.6 µM [inhibitor, full curve] | 
CC(O)CNCCCOc1cccc(Oc2ccccc2)c1 (centres undefined) | active: 22.4 µM | 
CC1CCN(CCOCCOc2ccccc2Br)CC1 | active: 2.51 µM | 
CCCCn1c(N)c(N(CCOC)C(=O)c2ccc(C)c(S(=O)(=O)N3CCOCC3)c2)c(=O)[nH]c1=O |  | inactive: 0.714%
CCN1CCCc2cc(CN(CCN3CCOCC3)C(=S)Nc3ccccc3OC)ccc21 | active: 39.8 µM | 
COc1ccc(C(=O)N/C(=C\c2cn(S(=O)(=O)N(C)C)c3ccccc23)C(=O)NCCCn2ccnc2)cc1 | inconclusive: 44.7 µM [inhibitor, partial curve] and inconclusive: 79.4 µM [inhibitor, partial curve] | 
CN(C)c1ccc(N=C/C=C2/N(C)c3ccccc3C2(C)C)cc1 | active: 39.8 µM | 
O=C(Cc1ccc(Cl)cc1)NCC(c1cccs1)S(=O)(=O)c1ccc(Cl)cc1 (centres undefined) |  | inactive: -13.3%
CCN(CC)S(=O)(=O)c1ccc(C)c(NC(=O)CNCc2ccccc2OC)c1 | active: 11.2 µM | 
CC(=O)c1cccc(S(=O)(=O)NC2CCSc3ccccc32)c1 (centres undefined) | inconclusive: 39.8 µM [inhibitor, partial curve] | 
O=C(CSc1nnc(-c2ccccn2)n1Cc1ccco1)c1ccccc1 | inconclusive: 15.8 µM [inhibitor, full curve] | 
CC(C)Oc1ccc(OCCNC2CCCC2)cc1 | active: 3.55 µM | 
CCCn1c(CC)nc([N+](=O)[O-])c1Sc1ccc(F)cc1 | inconclusive: 89.1 µM [inhibitor, partial curve] | 
CCCCCCCc1n[nH]c(=S)n1Cc1ccccc1 | inconclusive: 70.8 µM [inhibitor, single point] | 

Structure (SMILES) | Potency | activity change, negative = inhibition
CCOc1ccc(C2C(C(=O)c3cccs3)=C(O)C(=O)N2Cc2cccnc2)cc1OC (centres undefined) | inconclusive: 44.7 µM [inhibitor, partial curve, poor fit] | 
Cc1ccccc1NS(=O)(=O)c1ccc(C(=O)N2CCCC(C(F)(F)F)C2)cc1 (centres undefined) | inconclusive: 39.8 µM [inhibitor, single point] | 
CSCC[C@H](NC(=O)C(C)(C)Oc1ccc(Cl)cc1)c1nc2ccccc2[nH]1 |  | inactive: 5.54%
Cc1ccc(NC(=O)C(NC2CCCc3ccccc32)c2ccccc2)c([N+](=O)[O-])c1 (centres undefined) | active: 4.47 µM | 
Cc1ccccc1-c1cccc([C@@H]2C[C@H]3CN(Cc4cccnc4)C(=O)[C@]34CCCN24)c1 |  | inconclusive: -40.6% [inhibitor]
Cn1ncc2c(N3CCN(c4ccccc4Cl)CC3)ncnc21 |  | inactive: -13.5%
COc1ccc(N2CCN(Cc3nc(-c4ccccc4)no3)CC2)cc1 | inconclusive: 50.1 µM [inhibitor, partial curve] | 
COc1cc(/C=N/N2CCN(Cc3ccc(C)cc3)CC2)cc(OC)c1O | active: 39.8 µM | 
O=C1CSC(c2cn(-c3ccccc3)nc2-c2ccc3c(c2)OCCO3)N1CCN1CCOCC1 (centres undefined) | inconclusive: 89.1 µM [inhibitor, single point] | 
Cc1nn(-c2ccccc2)c(N2CCCC2)c1/C=N/NC(=O)c1cc(-c2ccccn2)nc2ccccc12 | inconclusive: 56.2 µM [inhibitor, partial curve] | 
Cc1cccc(N(CC(=O)NCCSCc2ccco2)S(=O)(=O)c2ccccc2)c1 | inconclusive: 79.4 µM [inhibitor, partial curve] | 
C=CCn1c(SCC(=O)N2CC(=O)Nc3ccccc32)nc2scc(-c3cccs3)c2c1=O |  | inactive: -15%
Cc1nnc(N2CCCC(C(=O)NCc3ccc(OC(C)C)cc3)C2)c2nn(-c3ccccc3)c(C)c12 (centres undefined) |  | inactive: -17.8%
NC(=O)c1nsc(C(=O)N(c2ccc3c(c2)OCCO3)C(C(=O)NCC2CCCO2)c2ccc(F)cc2)c1N (centres undefined) |  | inactive: -6.99%
CCOC(=O)c1cc(-c2ccc(/C=C3/C(=O)N(c4ccc(C(=O)O)cc4)N=C3C)o2)ccc1Cl | active: 14.1 µM | 
COc1ccccc1C(NC(C)=O)c1cc(Cl)c2cccnc2c1O (centres undefined) | inconclusive: 79.4 µM [inhibitor, partial curve] | 
CC1COCC(C)N1C1=C(Cl)C(=O)c2ccccc2C1=O (centres undefined) | active: 3.16 µM | 
COc1cc2c(C(=O)OCCN(C)C)c(CSc3ccccc3)n(C)c2cc1Br |  | inactive: -30.5%
Cc1noc(C)c1CSc1nc2ccccc2c(=O)n1-c1ccc(Cl)cc1 |  | inactive: -16.7%
COc1ccc(NC(=O)CN2C(=O)CC(c3ccco3)Sc3ccccc32)cc1OC (centres undefined) | inconclusive: 63.1 µM [inhibitor, partial curve] | 
COC(=O)c1cccc(NC(=O)CSc2nnc(C3CC3)n2C)c1 |  | inactive: -5.61%
O=C(c1ccc(F)cc1)N1CCN(c2cc(N3CCCCC3)c(F)cc2[N+](=O)[O-])CC1 | inconclusive: 14.1 µM [inhibitor, full curve] | 
COc1ccccc1CC(=O)Nc1ccc(C(=O)N2CCCCC2)cc1 |  | inactive: -6.57%

Structure (SMILES) | Potency | activity change, negative = inhibition
CNc1oc(-c2ccc(Cl)cc2)nc1P(=O)(c1ccccc1)c1ccccc1 | inconclusive: 22.4 µM [inhibitor, full curve] | 
Cn1c2ccsc2c2cnn(Cc3ccccc3F)c(=O)c21 | inactive | 
COC(=O)c1ccc(CSc2nnc(-c3ccc4c(c3)OCO4)n2-c2ccccc2)o1 | inconclusive: 70.8 µM [inhibitor, single point] | 
O=c1c(-c2ccccc2)c(O)nc(SCCN2CCOCC2)n1-c1ccccc1 |  | inactive: -12.1%
CCC1CN(C(=O)Nc2ccccc2C(F)(F)F)c2ccccc2S1 (centres undefined) | inconclusive: 89.1 µM [inhibitor, partial curve] | 
COc1cc2[nH]c(=S)nc(NCCCOC(C)C)c2cc1OC | inconclusive: 79.4 µM [inhibitor, partial curve] | 
COc1cccc(Nc2ncnc3onc(-c4ccccc4OC)c23)c1 |  | inactive: -13.9%
O=[N+]([O-])c1cc([N+](=O)[O-])c(Oc2cc(Cl)cc(Cl)c2)cc1NN1CCCCC1 | inconclusive: 35.5 µM [inhibitor, partial curve, poor fit] | 
CCCCSc1nc2sc3c(c2c(=O)n1-c1ccccc1)CCN(C)C3 | inconclusive: 39.8 µM [inhibitor, partial curve] | 
CC(NC1=CC(=O)c2cccnc2C1=O)C(O)c1ccccc1 (centres undefined) | active: 56.2 µM | 
COc1ccc(CNS(=O)(=O)CCNC(=O)c2cccc(OC)c2)cc1 |  | inactive: -13.6%
COc1ccc(NC(=O)CN(C)C(=O)c2ccc(NS(=O)(=O)c3ccc4[nH]c(=O)[nH]c4c3)cc2)cc1 |  | inactive: -20.7%
C#CCOCCOCCOCCNc1nc(N2CCOCC2)nc(N2CCN(C(=O)[C@H](Cc3cc4ccccc4[nH]3)n3cc([C@@H](N)CC(C)C)nn3)CC2)n1 | inconclusive: 17.8 µM [inhibitor, full curve] | 
Cc1ccc(-c2nnc(SCC(=O)N/N=C/c3c(C)nn(-c4ccccc4)c3C)n2-c2ccc(C)cc2)cc1 | inconclusive: 39.8 µM [inhibitor, single point] | 
COc1nccnc1NS(=O)(=O)c1ccc(NC(=S)NC(=O)c2ccccc2F)cc1 | inconclusive: 79.4 µM [inhibitor, single point] | 
Cc1ccc(-n2ncc(C(=O)NCCCN3CCc4ccccc4C3)c2C2CCN(C(=O)OC(C)(C)C)CC2)cc1C | inconclusive: 56.2 µM [inhibitor, partial curve] | 
COc1ccc(N2CCN(c3nc4c(c(=O)[nH]c(=O)n4C)n3Cc3cccc(C)c3)CC2)cc1 | inconclusive: 15.8 µM [inhibitor, full curve, poor fit] | 
NS(=O)(=O)c1ccc(CNC(=O)c2csc3c2CCCC3)cc1 |  | inactive: -3.47%
O=C(Nc1ccc2c(c1)OCO2)C1CCN(Cc2cc3c(cc2O)OCO3)CC1 | inconclusive: 11.2 µM [inhibitor, partial curve, poor fit] | 
COc1cc2c(C(=O)N3CCN(c4ccccc4)CC3)c(C)oc2cc1Br | inconclusive: 50.1 µM [inhibitor, partial curve] | 
O=C(/C=C/c1ccc(-c2ccccc2[N+](=O)[O-])o1)c1ccc(Br)cc1 | inconclusive: 11.2 µM [inhibitor, full curve] | 
CCOC(=O)c1c(C)[nH]c(N=Nc2ccc(C)cc2C)c1C | active: 50.1 µM | 
Cc1ccc(C(=O)N/C(=C\c2cn(S(=O)(=O)N(C)C)c3ccccc23)C(=O)NCCCn2ccnc2)cc1 | inconclusive: 50.1 µM [inhibitor, partial curve] and inconclusive: 56.2 µM [inhibitor, partial curve] | 
